The source of these data is patent US20260015434A1, “ANTIBODY MATERIALS AND METHODS TARGETING MICROBIAL POLYSACCHARIDES” (priority 2022, published 2026).

First the molecules themselves.
B1: 120 × 266: 1467120 HC (SEQ ID NO: 45) with 5575266 LC (SEQ ID NO: 24) (antibody, V domains shown)
VH: QVQLVESGGGLVQPGGSLRLSCAASGFTFSSYWMSWVRQAPGKGLEWVANIKQDGSEKYYVDSVKGRFTISRDNAKNSLYLQMNSLRAEDTAVYYCARDPEGGLPDYWGQGTLVTVSS
VL: [about 100 residues not listed]DTFGQGTRLEIK
modifications: Based on an antibody sequence.; Based on antibody sequence.
B2: 285 × 266: 4488285 HC (SEQ ID NO: 46) with 5575266 LC (SEQ ID NO: 24) (antibody, V domains shown)
VH: B1 VH with Q1E, E101Y, G102M, P105I
VL: [about 100 residues not listed]DTFGQGTRLEIK
modifications: Based on an antibody sequence.; Based on antibody sequence.
B3: 729 × 266: 15729 HC (SEQ ID NO: 44) with 5575266 LC (SEQ ID NO: 24) (antibody, V domains shown)
VH: B1 VH with Q1E, E101D, G103R, L104I, P105F
VL: [about 100 residues not listed]DTFGQGTRLEIK
modifications: Based on an antibody sequence.; Based on antibody sequence.

Changes are numbered by the printed parent chain.

For the assay, the system named is PNAG conjugates on the array (dPNAG, PNAG and intermediate levels of deacetylation). Briefly: Neoglycoprotein (glycan) microarray binding, 816-component array. Conditions: ability to bind both dPNAG and PNAG and intermediate levels of deacetylation.
Take B1: the “PNAG Binding on Array” value is “No”.
Next, B2: “No”; B3: “No”.
